# Measured values from paper PMC12136788.
# This is one part of the list.
# T1: UNK ZnF1-3 (human, UniProt Q9C0B0 31-174)
# T1 sequence: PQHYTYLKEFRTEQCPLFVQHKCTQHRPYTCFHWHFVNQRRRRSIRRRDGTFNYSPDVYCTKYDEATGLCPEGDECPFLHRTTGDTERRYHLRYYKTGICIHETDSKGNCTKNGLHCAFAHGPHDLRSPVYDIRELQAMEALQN
# B1: chr4:106720802:106720803:+_ENSMUSG00000061887_ENSMUST00000030367|mus_mus|motif|central (ssRNA)
# RNA: GGGAGUUCUACAGUCCGACGAUCAGUUUUGUCCUUCAUGUUUUACGGAAUAAAAGUUUGGCCUUUUUAUUGCAUGAAACGGAAAUUGGGGAAGGUGGGGGAGUGAAUGGGAGGGUGGAGGGAGCAGGAGAUGCCCUCCCCCAGCAACAGAGGAUUGAGCAUCA
# B2: chr17:87833181:87833182:-_ENSMUSG00000036438_ENSMUST00000040440|perfect_dup|motif|central (ssRNA)
# RNA: GGGAGUUCUACAGUCCGACGAUCCGGGCUUAGAUAUAGCCAGAGUAAGCCACAUGCAACAUGUUACUUCAUCAAUUUUCGGAAAUAAGGUUUAAGGACAAUGACAGUAAGAUAAGGGAAGAAAACAUGGAGGAAUGAAGUCCUCAACAGAGGAUUGAGCAUCA
# B3: chr14:56483160:56483161:+_ENSMUSG00000075592_ENSMUST00000168479|mus_hu|motif|central (ssRNA)
# RNA: GGGAGUUCUACAGUCCGACGAUCAGCCUGUAGUUGGGGUGUAGAGGUCAAGGGUGGCCCUAUCUGUGGGAGAUCCGAGCGGACUUUGUCUUUUACAUCUGAGCUCCCAGGGACCACCAAUAAACUCGUAACUUUUGGGGAAAUCAACAGAGGAUUGAGCAUCA
# B4: chr11:115359427:115359428:-_ENSMUSG00000020737_ENSMUST00000021083|mus_mus|FALSE|FALSE (ssRNA)
# RNA: GGGAGUUCUACAGUCCGACGAUCUCCCAAGCAUGGGACAACAAACAGACAGACAGAAGGACAGAGUUCCAACACAAGAAGCUAACCCAAGACCAGGCUGGACUUGCCGCCAGGGGGGUUUCUCCUGGAUGGCACUGGGGCUGGCAACAGAGGAUUGAGCAUCA
# B5: chr7:27831639:27831640:+_ENSG00000106052_ENST00000265393|hu_hu|FALSE|FALSE (ssRNA)
# RNA: GGGAGUUCUACAGUCCGACGAUCAACUUCUUGCCGAGUUGCCUGAACCUGUUCCUCUGCUUUACGAAGUUGCUCCUUUAAAAAACAAGUAUCUUCUUUACUUGAGGUUGUAAGCAGGAAAGUUCUUUGCAGAUUUUCCUUUUCCAACAGAGGAUUGAGCAUCA
# B6: chr11:4127340:4127341:+_ENSG00000167325_ENST00000300738|hu_mus|hu_hu_hu_mus_False|38_78 (ssRNA)
# RNA: GGGAGUUCUACAGUCCGACGAUCGGCAUAGUCAGGGUGCUUCGUGGUCAAGGUCGCAGCUGUUUCAGCAGCCAGGGUGUCCAGUUCCACUGUGGUGACCCCACUGUAUAGGCCUUGGAUUACUUUCAUGGUGAUCUGAGCAGGCAACAGAGGAUUGAGCAUCA
# B7: chr7:97319096:97319097:+_ENSMUSG00000039361_ENSMUST00000049537|mus_mus|motif|central (ssRNA)
# RNA: GGGAGUUCUACAGUCCGACGAUCAUCUUUGAAGAGGAGCAUGAAGGCAGCAUUUAUUACCCCAUUUGUAAGUUCAUUACGGUUAACAUUAAAAUCAAGAAGUGCAUCCAUUUGAUUUUGGAUAAUUGGUACAGUUUUUAAGAGCAACAGAGGAUUGAGCAUCA
# B8: 101371430_101371658_3074_CDS_ENSG00000066422_ENST00000312938|human|control|control (ssRNA)
# RNA: GGGAGUUCUACAGUCCGACGAUCUCUUCCUUUCUUCCCAUGGGUAGCUUUCUUUACAUGCCUUCUGAACAAAGCUUUUUCAUAAAAUUCUUUGCCACAUAUAUUACACCUAUAAGGCUCAGUGACAGAAUGAGACUUCACAUGCAACAGAGGAUUGAGCAUCA
# B9: chr13:100204638:100204639:-_ENSMUSG00000052727_ENSMUST00000064762|mus_mus|FALSE|FALSE (ssRNA)
# RNA: GGGAGUUCUACAGUCCGACGAUCGGGGGUGGGCACCUGGCCAGUGAGAUCUUUUUGGGUGGCCAGUGGCUGCUUUAGGAAAUCUAGAUGUUUGAGUUUCUCCAGUCCUUCUAGGAUGUUGUACUGGGUACUGUUUCCGGGAAACAACAGAGGAUUGAGCAUCA
# B10: chr2:131764077:131764078:+_ENSMUSG00000079037_ENSMUST00000091288|mus_mus|FALSE|FALSE (ssRNA)
# RNA: GGGAGUUCUACAGUCCGACGAUCAUACAUGCAAAGUUACAAAUAUAGAAAACGUGAAGUACAUGCAGAUUCAAAGACCAGCUAGGGGUCUGCUUUGGAAUCCUACGGAACUGAGUGCACGCUGAAAGCCCAAGGGUCACACGGCAACAGAGGAUUGAGCAUCA
# B11: chr5:146773137:146773138:-_ENSG00000113657_ENST00000343218|hu_mus|FALSE|FALSE (ssRNA)
# RNA: GGGAGUUCUACAGUCCGACGAUCCCAUGGAAAUUAACACACAUCAUAAUACAACACACAAUGCCCUUCUGCUCACCCCACCCACCCACCUCCCUAGUACACGUCCCACCCCAGCCCCUUUGUGCCCUCCAUCUUGCCCUGGGCCAACAGAGGAUUGAGCAUCA
# B12: 135173520_135173640_5850_CDS_ENSG00000107290_ENST00000224140|human|control|control (ssRNA)
# RNA: GGGAGUUCUACAGUCCGACGAUCUGGAUUCAGAACAGCUCUAGCCAGUUGGUUCCGACUACCCAACAGAGACAUGGCUUUCAACUUCCUUUGUGUAGUUACCAGAGAACUGAUUACAAUACAAUUCACAAGUUCGUUUAAAUUCAACAGAGGAUUGAGCAUCA
# B13: chr2:22790581:22790582:+_ENSMUSG00000026784_ENSMUST00000139472|mus_mus|FALSE|FALSE (ssRNA)
# RNA: GGGAGUUCUACAGUCCGACGAUCUAGACACUGUUGAGCGCACACUGAAAUCAUCGGGGGAUUAAGUGCCUUGAUCCCACUCCCCACAAAUCUGAUUAUACUGGUGUUAUGAUCAUCAAAUGUUUUAAUGCACACCUCCUUUGGCAACAGAGGAUUGAGCAUCA
# B14: 80004202_80041456_112_5pUTR_ENSMUSG00000042428_ENSMUST00000044970|mouse|control|control (ssRNA)
# RNA: GGGAGUUCUACAGUCCGACGAUCCACAGGCCAGCCAUACAGAACAUGAGAAAGAGCUUGUAGCGUCUCAUCUUCAUCCCAUCGUCCGCUGGGUCUCAGCAGCGGCGGUAGAAGCAGCGGCGGCGGCGGCUCCGGGGCCCCCGGCAACAGAGGAUUGAGCAUCA
# Target: T1, UNK ZnF1-3
# Test: nsRBNS (natural sequence RNA bind-n-seq); RBNS binding buffer (assumed for nsRBNS): 25 mM Tris pH 7.5, 150 mM KCl, 3 mM MgCl2, 0.01% Triton X-100, 500 ug/ml BSA, 20 U/ml SUPERase-In, 4 C; UNK is unkempt and MSI1 is Musashi-1; names of the RNAs are library labels; protein concentration not given here; high values mean tight binding
row,Binder,binding signal [enrichment R]
1,B1,0.937
2,B2,2.55
3,B3,1.01
4,B4,1.49
5,B5,0.34
6,B6,0.936
7,B7,2.12
8,B8,1.1
9,B9,0.675
10,B10,0.965
11,B11,0.481
12,B12,0.991
13,B13,1.05
14,B14,1.57
